Laboratory results published in the supplement of paper PMC8728848.
Some of the results follow.

Experiments:
Assay in all cases: glycan array binding signal (z-score within array); higher = stronger binding
Conditions in all cases: glycan notation: IUPAC condensed, linker removed
[1] = target: GlcNAc(b1-3)Gal(b1-4)GlcNAc(b1-3)Gal(b1-4)GlcNAc(b1-3)GalNAc
Outline: (§1)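 Arrays were curated from the Consortium for Functional Glycomics database, 3228 in total, and kept only where the protein sequence was available. Binding is expressed as a within-array Z-score. This score was averaged across arrays of the same protein sequence at different concentrations or buffers and across linkers, and negative values can be read as non-binding.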

[2] = target: GlcNAc(b1-3)Gal(b1-4)GlcNAc(b1-3)GalNAc
Outline: as §1

[3] = target: GlcNAc(b1-3)Gal(b1-4)GlcNAc(b1-3)[GlcNAc(b1-3)Gal(b1-4)GlcNAc(b1-3)]GalNAc
Outline: as §1

[4] = target: GlcNAc(b1-3)Gal(b1-4)GlcNAc(b1-6)[Gal(b1-3)]GalNAc
Outline: as §1

[5] = target: GlcNAc(b1-3)Gal(b1-4)GlcNAc(b1-6)[GlcNAc(b1-3)Gal(b1-3)]GalNAc
Outline: as §1

[6] = target: GlcNAc(b1-3)Gal(b1-4)GlcNAc(b1-6)[GlcNAc(b1-3)]Gal(b1-4)GlcNAc
Outline: as §1

[7] = target: GlcNAc(b1-3)GalNAc
Outline: as §1

[8] = target: GlcNAc(b1-3)Man
Outline: as §1

[9] = target: GlcNAc(b1-3)[GlcNAc(b1-4)][GlcNAc(b1-6)]GlcNAc
Outline: as §1

[10] = target: GlcNAc(b1-3)[GlcNAc(b1-6)]Gal(b1-4)GlcNAc
Outline: as §1

[11] = target: GlcNAc(b1-3)[GlcNAc(b1-6)]GalNAc
Outline: as §1

[12] = target: GlcNAc(b1-4)Gal(b1-4)GlcNAc
Outline: as §1

[13] = target: GlcNAc(b1-4)GlcNAc
Outline: as §1

[14] = target: GlcNAc(b1-4)GlcNAc(b1-4)GlcNAc
Outline: as §1

[15] = target: GlcNAc(b1-4)GlcNAc(b1-4)GlcNAc(b1-4)GlcNAc(b1-4)GlcNAc
Outline: as §1

[16] = target: GlcNAc(b1-4)GlcNAc(b1-4)GlcNAc(b1-4)GlcNAc(b1-4)GlcNAc(b1-4)GlcNAc
Outline: as §1

[17] = target: GlcNAc(b1-4)[GlcNAc(b1-6)]GalNAc
Outline: as §1

[18] = target: GlcNAc(b1-6)Gal(b1-4)GlcNAc
Outline: as §1

[19] = target: GlcNAc(b1-6)GalNAc
Outline: as §1

[20] = target: GlcNAc6S(b1-3)Gal(b1-4)GlcNAc
Outline: as §1

[21] = target: Kdn(a2-3)Gal(b1-3)GalNAc
Outline: as §1

[22] = target: Kdn(a2-3)Gal(b1-3)GlcNAc
Outline: as §1

[23] = target: Kdn(a2-3)Gal(b1-4)Glc
Outline: as §1

[24] = target: Kdn(a2-3)Gal(b1-4)GlcNAc
Outline: as §1

[25] = target: Kdn(a2-3)Gal(b1-4)[Fuc(a1-3)]GlcNAc
Outline: as §1

[26] = target: Kdn(a2-6)Gal(b1-4)GlcNAc
Outline: as §1

[27] = target: Man(a1-2)Man(a1-2)Man(a1-3)Man
Outline: as §1

[28] = target: Man(a1-2)Man(a1-2)Man(a1-6)[Man(a1-3)]Man
Outline: as §1

[29] = target: Man(a1-2)Man(a1-3)Man
Outline: as §1

[30] = target: Man(a1-2)Man(a1-3)[Man(a1-2)Man(a1-6)]Man
Outline: as §1

[31] = target: Man(a1-2)Man(a1-3)[Man(a1-2)Man(a1-6)]Man(a1-6)[Man(a1-2)Man(a1-2)Man(a1-3)]Man
Outline: as §1

[32] = target: Man(a1-2)Man(a1-3)[Man(a1-2)Man(a1-6)]Man(a1-6)[Man(a1-2)Man(a1-2)Man(a1-3)]Man(b1-4)GlcNAc(b1-4)GlcNAc
Outline: as §1

[33] = target: Man(a1-2)Man(a1-3)[Man(a1-6)]Man(a1-6)[Man(a1-2)Man(a1-3)]Man(b1-4)GlcNAc(b1-4)GlcNAc
Outline: as §1

[34] = target: Man(a1-2)Man(a1-6)[Man(a1-3)]Man(a1-6)[Man(a1-2)Man(a1-2)Man(a1-3)]Man
Outline: as §1

[35] = target: Man(a1-2)Man(a1-6)[Man(a1-3)]Man(a1-6)[Man(a1-2)Man(a1-2)Man(a1-3)]Man(b1-4)GlcNAc(b1-4)GlcNAc
Outline: as §1

[36] = target: Man(a1-3)[Man(a1-6)]Man
Outline: as §1

[37] = target: Man(a1-3)[Man(a1-6)]Man(a1-6)[Man(a1-2)Man(a1-3)]Man(b1-4)GlcNAc(b1-4)GlcNAc
Outline: as §1

B1: PV12658A-bvu-496-32-496 (Bacteroides vulgatus) (protein)
chain: DLDGAITTPAAVELALNGIYYSLPGNGFNVIFPTVSGSFKAGTMWRQEIVSAGNAVYYSERMLPTLSFSDATEWDADYAVIKNANFLETACNRMSDGEFSGNRRAEVLGEIAYLRALAYFNILVRYCEFWDMNSEYGVVMRNEAPSVSNALKARSSVADSYQYILDQLEIAIEKAPDWKKLSQASKEAAKALKARVLLYAGKYTEAVAAVNDAIDTNSPLPEANYGDVFDKFSTTKEILFARVFDQKDATNTSTRQQCYGNSPTKKQGYWGPTNEYVELVGDDPRADAIFSKVDSLMDSRSSAVAYNLKSVKKLLNDANDMPVIFSRVSELYLIKAEALYRSGASISEAYAPIRKLRERAGAEIILPANNEELETAIFNEWMLELSFENWHEWFAMIRFAGYTEKPDFTRLLALNKTLREALEKEYEKSEAQGDNYYQRIIDRRIDAIPSSEISSNLECKQNPGY
glycan array binding signal (z-score) [1]: 0.161
glycan array binding signal (z-score) [2]: -0.397
glycan array binding signal (z-score) [3]: -0.283
glycan array binding signal (z-score) [4]: 0.089
glycan array binding signal (z-score) [5]: -0.117
glycan array binding signal (z-score) [6]: -0.545
glycan array binding signal (z-score) [7]: -0.285
glycan array binding signal (z-score) [8]: -0.414
glycan array binding signal (z-score) [9]: -0.459
glycan array binding signal (z-score) [10]: -0.286
glycan array binding signal (z-score) [11]: -0.243
glycan array binding signal (z-score) [12]: -0.358
glycan array binding signal (z-score) [13]: -0.141
glycan array binding signal (z-score) [14]: -0.297
glycan array binding signal (z-score) [15]: -0.447
glycan array binding signal (z-score) [16]: -0.318
glycan array binding signal (z-score) [17]: -0.506
glycan array binding signal (z-score) [18]: -0.432
glycan array binding signal (z-score) [19]: -0.328
glycan array binding signal (z-score) [20]: -0.272
glycan array binding signal (z-score) [21]: -0.441
glycan array binding signal (z-score) [22]: -0.137
glycan array binding signal (z-score) [23]: -0.366
glycan array binding signal (z-score) [24]: 0.085
glycan array binding signal (z-score) [25]: -0.226
glycan array binding signal (z-score) [26]: -0.399
glycan array binding signal (z-score) [27]: -0.554
glycan array binding signal (z-score) [28]: -0.397
glycan array binding signal (z-score) [29]: -0.147
glycan array binding signal (z-score) [30]: -0.369
glycan array binding signal (z-score) [31]: -0.122
glycan array binding signal (z-score) [32]: -0.415
glycan array binding signal (z-score) [33]: -0.364
glycan array binding signal (z-score) [34]: -0.356
glycan array binding signal (z-score) [35]: -0.073
glycan array binding signal (z-score) [36]: -0.395
glycan array binding signal (z-score) [37]: 0.048
